Experimental data from PubChem BioAssay AID1346428 (National Center for Advancing Translational Sciences (NCATS), 2018).
Out of some 48,000 compounds screened, about 1,200 (2.5%) were called active. Inconclusive results (about 2%) are left out.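 How the source made its calls: active means activation of at least 60% and not above a set upper limit (about 1 call in 100 departs from these limits); inconclusive means activation of 40% to 60%, or above that upper limit; inactive means activation under 40%.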 The list shows a part of the results.

Target: Probable G-protein coupled receptor 32 (Homo sapiens) (UniProt O75388)
Test: qHTS for Agonists of Human Resolvin D1 Receptor DRV1
Details: CHO-K1 GPR32 beta-arrestin PathHunter luminescence, 90 min; at 76.9 µM; stronger effect = higher value; zero percent set by DMSO-only wells
Summary of the method: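 Using DMSO wells as EC0, agonist-induced signal was taken as chemiluminescence from beta-Gal reconstituted upon beta-arrestin recruitment to GPR32 in CHO-K1 cells after 90 min compound treatment.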

UniProt O75388, sequence (O75388 whole entry, looked up): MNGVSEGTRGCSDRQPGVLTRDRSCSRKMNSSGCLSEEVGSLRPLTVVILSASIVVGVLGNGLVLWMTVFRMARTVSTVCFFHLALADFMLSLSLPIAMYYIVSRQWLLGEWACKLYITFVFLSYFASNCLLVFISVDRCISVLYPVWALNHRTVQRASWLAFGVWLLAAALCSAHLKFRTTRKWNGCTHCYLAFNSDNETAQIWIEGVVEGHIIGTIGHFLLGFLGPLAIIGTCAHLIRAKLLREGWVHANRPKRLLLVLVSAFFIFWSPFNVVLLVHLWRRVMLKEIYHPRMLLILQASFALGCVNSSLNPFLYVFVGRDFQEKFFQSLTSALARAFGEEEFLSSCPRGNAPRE

Structure (SMILES) | activation
CCn1c(SC)nc2c([nH]c3ccccc32)c1=O | inactive: -13.9%
CCOC(=O)c1c(S(=O)(=O)N2CCC(C(=O)Nc3ccc(C)cn3)CC2)c(C)n(C)c1C | inactive: -3.6%
COc1cc(NC(=O)Cn2c(=O)n(Cc3ccccc3)c(=O)c3oc4ccccc4c32)cc(OC)c1 | inactive: -11.6%
COc1ccc(-c2noc(CC(=O)N(C)c3ccccc3F)n2)cc1 | inactive: -9.27%
O=C(Nc1ccc(F)cc1)C1CCN(c2nc3ccccc3nc2C(F)(F)F)CC1 | inactive: 4.99%
Cc1cc(-c2ccc(S(=O)(=O)Nc3ccccc3C)cc2)on1 | inactive: -5.5%
Cc1cc(O)c(C(c2ccc(F)cc2)N2CCN(c3ccccc3)CC2)c(=O)n1Cc1ccco1 (stereo unspecified) | inactive: -21.2%
CCCCN1C(=O)C(NC(=O)c2ccc(C(C)(C)C)cc2)(C(F)(F)F)C(C(=O)OC)=C1C (stereo unspecified) | inactive: -8.23%
COc1ccc(-c2nc(SCC(=O)NCc3nc4ccccc4n3C)n3[nH]c(=O)cc3n2)cc1 | inactive: -10.6%
Cc1ccc(NC(=O)CSc2nnc(C)s2)c(C)c1 | inactive: -2.86%
COc1ccc(NC(=O)C2CCN(c3nc4ccccc4[nH]3)CC2)cc1OC | inactive: 2.56%
COc1ccc(OC)c(NC(=O)Nc2cccc(OCc3cc(=O)n4cc(C)ccc4n3)c2)c1 | inactive: -7.64%
O=C(CSc1nc2c(c(=O)[nH]1)CCC2)Nc1cccc(O)c1 | inactive: -14.4%
CC(NC(=O)c1cccc(Nc2nc3ccccc3n3nnnc23)c1)c1ccccc1 (stereo unspecified) | inactive: 27.2%
Cc1ccc(N2CCN(c3ncnc4onc(-c5ccc(F)cc5)c34)CC2)c(C)c1 | inactive: -9.06%
COc1ccc(-n2nnnc2C2CCN(S(=O)(=O)c3cc(Cl)ccc3OC)CC2)cc1 | inactive: -7.51%
COc1cc(NC(=O)c2c(C)nn(-c3ccc(F)cc3)c2-n2cccc2)cc(OC)c1 | active: 103%
CCn1c(=O)c2sccc2n2c(CCCC(=O)Nc3ccc(C)cc3)nnc12 | inactive: -6.26%
Cc1ccc(S(=O)(=O)NCCc2nnc3ccc(SCc4cccc(F)c4)nn23)cc1 | inactive: -14.7%
COc1ccc(-c2nc3ccccc3o2)cc1NC(=O)c1ccc(-c2ccc(C)c(Cl)c2)o1 | inactive: 4.71%
COc1ccc(CC(=O)Nc2c(C(=O)N3CCN(c4ccccc4F)CC3)oc3ccccc23)cc1OC | inactive: -26.4%
CCOc1ccc(OCC)c(Nc2nc3ccccc3n3nnnc23)c1 | inactive: -4.95%

Structure (SMILES) | activation
Cc1ccc(Nc2c(-c3ccco3)nc3ccc(C)cn23)cc1 | inactive: -12.8%
CCN(C(=O)c1cc2c(=O)oc3ccccc3c2s1)c1cccc(C(F)(F)F)c1 | inactive: 11.4%
COc1ccc(NC(=O)CSC2=Nc3ccccc3C3=NC(Cc4ccccc4)C(=O)N23)cc1 (stereo unspecified) | inactive: -20.3%
O=C1C2=C(Nc3ccccc3SC2c2ccc(C(F)(F)F)cc2)c2ccccc21 (stereo unspecified) | inactive: -36.1%
O=C(CN1C=NS(=O)(=O)c2ccccc21)Nc1ccc(Br)cc1 | inactive: 10%
Cc1ccccc1CNC(=O)CCCn1ncn2c(cc3occc32)c1=O | inactive: -18.4%
Cc1cccc(-n2nnc(-c3nc(-c4cccs4)no3)c2N)c1C | inactive: -1.17%
COc1ccccc1Nc1ncc2c(n1)CCN(CC(C)C)C2 | inactive: -4.13%
COCCNC(=O)c1ccc2c(c1)NC(=O)C(CS(=O)(=O)Cc1ccc(F)cc1Cl)N2 (stereo unspecified) | inactive: -20.3%
COc1cccc(CNC(=O)c2ccc3oc(=O)n(Cc4ccccc4)c3c2)c1 | inactive: 8.48%
COc1ccc(NC(=O)c2c(NC(=O)c3cccc(C)c3)sc3c2CCC3)cc1 | inactive: 4.68%
Cc1ccc(CCNC(=O)C2COc3ccccc3C2)cc1 (stereo unspecified) | inactive: -14.7%
Oc1c(C(c2ccc(F)cc2)N2CCCC2)sc2nc(-c3ccco3)nn12 (stereo unspecified) | inactive: 17.9%
Cc1ccc(S(=O)(=O)c2cn(C)c3cc(N4CCOCC4)c(F)cc3c2=O)c(C)c1 | inactive: -8.72%
COc1ccc(N2CCN(c3ncnc4c3nc3n4CCCCC3)CC2)cc1 | inactive: 12.6%
Cc1ccc(Cl)cc1-n1c(=O)c2sc3ccccc3c2n(CC(=O)NC2CCCC2)c1=O | inactive: -49.3%
O=C(Oc1ccccc1C(=O)O)c1ccccc1O | inactive: 7.59%
O=C(O)c1ccc(S(=O)(=O)N(Cl)Cl)cc1 | inactive: -4.74%
Cc1ccc2c(c1)-c1onc(C(=O)N3CCN(c4cc(C)ccc4C)CC3)c1CO2 | inactive: -12.7%
COc1ccccc1CNS(=O)(=O)c1c(C(=O)N2CCC(C)CC2)c(C)n(C)c1C | inactive: -16.4%
Cc1ccc(CCNC(=O)Cn2ncc3c([nH]c4ccccc43)c2=O)cc1 | inactive: -12.9%
Cc1cc(C)n(-c2nc3cc(Cl)ccc3nc2N2CCN(c3cccc(C)c3C)CC2)n1 | inactive: -11.1%

Structure (SMILES) | activation
COc1ccc(C)cc1NC(=O)CSc1nc(=O)n(Cc2cccnc2)c2c1CCC2 | inactive: 5.72%
CCCCCN1C(C(=O)c2ccccc2)=C(NC(=O)c2ccc(OC)c(OC)c2)c2ccccc2S1(=O)=O | inactive: -1.22%
Clc1ccc(-c2ccc(CNCCSc3nnnn3-c3ccccc3)o2)cc1 | inactive: 1.31%
O=C(CCn1c(=O)c2cccn2c2ccc(F)cc21)NCCc1ccc(Cl)cc1 | inactive: -30.3%
COc1ccc(NC(=O)N2CCC(CN3CCCC3)CC2)c(OC)c1 | inactive: -6.51%
O=C(C1CCCN(S(=O)(=O)c2cccc3nonc23)C1)N1CCN(c2ccccc2F)CC1 (stereo unspecified) | inactive: 15.8%
COC(=O)c1ccccc1NC(=O)CSc1cc(-c2ccccc2)nc(C)n1 | inactive: -16.9%
COc1c(C)c2c(c(O)c1C/C=C(\C)CCC(=O)O)C(=O)OC2 | inactive: 6.56%
COc1ccc(C2(CNC(=O)C(=O)Nc3ccc(C)c(Cl)c3)CCCC2)cc1OC | inactive: -12.7%
CCN(CC)S(=O)(=O)c1nnc(NC(=O)COc2ccccc2)s1 | inactive: 1.36%
CC(=O)c1ccc(N2C(=O)N(Cc3ccc(F)cc3)c3ccccc3S2(=O)=O)cc1 | inactive: -6.38%
CC(C)(C)OC(=O)N1CCC(c2c(C(=O)NCCN3CCOCC3)cnn2-c2cccc(F)c2)CC1 | inactive: -0.536%
CCN1CCN(c2oc(-c3ccc(COc4ccc(OC)cc4)o3)nc2C#N)CC1 | inactive: -14.2%
Clc1ccccc1-c1nc(-c2ccncc2)no1 | inactive: 45.3%
COc1ccc(OC)c(C(=O)CN2C(=O)N(c3cc(C)cc(C)c3)S(=O)(=O)c3ccccc32)c1 | inactive: -35.1%
Clc1cccc(-n2ncc3c(NCCC4=CCCCC4)ncnc32)c1 | inactive: -7.42%
COC(=O)c1c(NC(=O)C2c3ccccc3Oc3ccccc32)sc2c1CCC(C)C2 (stereo unspecified) | inactive: -3.06%
Nc1nonc1-c1nc2ccccc2n1Cc1ccc(Br)cc1 | inactive: 13%
CC(=O)N1c2ccccc2C(=O)C1N1CCN(c2cccc(C)c2C)CC1 (stereo unspecified) | inactive: -18.8%
Cc1ccc(NC(=O)CSc2nc3c(c(=O)[nH]2)CN(Cc2ccccc2)CC3)cc1Cl | inactive: 2.84%
Nc1nc2nc(-c3ccc(Cl)cc3)cc(C(F)(F)F)n2n1 | inactive: 0.0918%
CC(CNC(=O)c1sc2ncccc2c1-n1cccc1)c1ccccc1 (stereo unspecified) | inactive: -8.99%

Structure (SMILES) | activation
Cc1ccc(NC(=O)C2=CC(c3cccs3)=NS(=O)(=O)N2C)cc1 | inactive: -4.36%
Cc1nc2scc(C)n2c(=O)c1S(=O)(=O)Nc1ccc(N2CCN(C(=O)C(C)C)CC2)cc1 | inactive: 5.43%
CC1(C)CC(=O)c2cc(C(=O)Nc3ccc(Cl)cc3)c(=O)[nH]c2C1 | inactive: 10.2%
O=C(CC(c1cccs1)N1Cc2ccccc2C1=O)Nc1ccccc1F (stereo unspecified) | inactive: -1.14%
Cc1ccc(CSC2=Nc3ccccc3C3=NC(CCC(=O)NCCc4ccccc4)C(=O)N23)cc1 (stereo unspecified) | inactive: -34.8%
COC(=O)c1cc2occc2n1Cc1ccc(F)cc1Cl | inactive: -32.6%
Cc1ccc(NC(=O)CN2C(=O)CSc3ccc(S(=O)(=O)N(C)C)cc32)cc1C | inactive: -5.72%
CCOc1cc(C2C(C(N)=O)=C(C)Nc3ncnn32)cc(Br)c1O (stereo unspecified) | inactive: 5.22%
Cc1ccc(C(=O)NCCSc2c(C)[nH]c3ccccc23)cc1C | inactive: 6.61%
COc1ccc(-c2nc(S(=O)(=O)c3ccc(Cl)cc3)c(N3CCCCCC3)o2)cc1 | inactive: -46.2%
Cc1ccc(-c2nn(CCC(=O)Nc3ccc(Cl)c(Cl)c3)c(=O)c3ccccc23)cc1 | inactive: 16.1%
O=C(Nc1ccc2oc(-c3cccc4c(Br)cccc34)nc2c1)c1ccc(Br)cc1 | inactive: -9.3%
CC(=O)c1[nH]c(C)c(C(=O)NCc2ccc(Cl)cc2)c1C | inactive: 3.43%
COc1cc(C)c(S(=O)(=O)Nc2cccc(-c3ccc(N4CCCC4)nn3)c2)cc1C | inactive: 29.9%
Cc1cc(F)ccc1NC(=O)CCS(=O)(=O)c1cccc2nsnc12 | inactive: -6.18%
CCN1C(=O)c2ccccc2S(=O)c2ccc(C(=O)N3CCN(c4ccc(F)cc4)CC3)cc21 (stereo unspecified) | inactive: 0.384%
Cc1cccc(-c2nc(-c3ccc4c(c3)[nH]c(=O)n4C)no2)c1 | inactive: 2.26%
Cc1ccccc1CN1C(=O)c2ccccc2Sc2ccc(C(=O)N3CCOCC3)cc21 | inactive: -21.5%
COc1ccccc1-c1c(C(F)(F)F)oc2c(CN3CCCCC3C)c(O)ccc2c1=O (stereo unspecified) | inactive: -5.12%
Cc1cccc(NC(=O)CSc2nc3c(oc4ccccc43)c(=O)n2-c2ccccc2)c1C | inactive: -1.99%
